In article PMC9911399, “Two distinct binding modes provide the RNA-binding protein RbFox with extraordinary sequence specificity”:
Changes are numbered by the printed parent chain; changes in the protein carry UniProt numbers. The list shows a part of the results.

T1: RBFOX1 RRM RbFoxmut (Fox-RRM*) (Homo sapiens, UniProt Q9NWB1 109-208, R118D;E147R;N151S;E152T)
T1 sequence: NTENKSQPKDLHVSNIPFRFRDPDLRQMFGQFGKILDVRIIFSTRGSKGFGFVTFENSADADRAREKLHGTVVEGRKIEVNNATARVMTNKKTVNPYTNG

B1: GUCAACG (DNA:RNA)
RNA: GGGAGACCGGAAUUCAGAUUGUCCGUCAACGUUAAAUCCCGUCGUAGCCACCA
DNA 1: CAATCTGAATTCCGGTCTCCC
DNA 2: TGGTGGCTACGACGGGATT
B2: GAGAUGU (DNA:RNA)
RNA: B1 RNA with U26A, C27G, A29U, C30G, G31U
DNA 1: CAATCTGAATTCCGGTCTCCC
DNA 2: TGGTGGCTACGACGGGATT
B3: CCCCGAA (DNA:RNA)
RNA: B1 RNA with G25C, U26C, A28C, A29G, C30A, G31A
DNA 1: CAATCTGAATTCCGGTCTCCC
DNA 2: TGGTGGCTACGACGGGATT
B4: GACAGUG (DNA:RNA)
RNA: B1 RNA with U26A, A29G, C30U
DNA 1: CAATCTGAATTCCGGTCTCCC
DNA 2: TGGTGGCTACGACGGGATT
B5: AGAGUUU (DNA:RNA)
RNA: GGGAGACCGGAAUUCAGAUUGUCCAGAGUUUUUAAAUCCCGUCGUAGCCACCA
DNA 1: CAATCTGAATTCCGGTCTCCC
DNA 2: TGGTGGCTACGACGGGATT
B6: GGGGUUC (DNA:RNA)
RNA: B5 RNA with A25G, A27G, U31C
DNA 1: CAATCTGAATTCCGGTCTCCC
DNA 2: TGGTGGCTACGACGGGATT
B7: UGAUCUU (DNA:RNA)
RNA: B5 RNA with A25U, G28U, U29C
DNA 1: CAATCTGAATTCCGGTCTCCC
DNA 2: TGGTGGCTACGACGGGATT
B8: UUCUACG (DNA:RNA)
RNA: B1 RNA with G25U, A28U
DNA 1: CAATCTGAATTCCGGTCTCCC
DNA 2: TGGTGGCTACGACGGGATT
B9: CAGGUCC (DNA:RNA)
RNA: B5 RNA with A25C, G26A, A27G, U30C, U31C
DNA 1: CAATCTGAATTCCGGTCTCCC
DNA 2: TGGTGGCTACGACGGGATT
B10: UUCAGAA (DNA:RNA)
RNA: B1 RNA with G25U, A29G, C30A, G31A
DNA 1: CAATCTGAATTCCGGTCTCCC
DNA 2: TGGTGGCTACGACGGGATT
B11: AUCUUCU (DNA:RNA)
RNA: B5 RNA with G26U, A27C, G28U, U30C
DNA 1: CAATCTGAATTCCGGTCTCCC
DNA 2: TGGTGGCTACGACGGGATT
B12: GAGCGCC (DNA:RNA)
RNA: B1 RNA with U26A, C27G, A28C, A29G, G31C
DNA 1: CAATCTGAATTCCGGTCTCCC
DNA 2: TGGTGGCTACGACGGGATT
B13: CGUCAUA (DNA:RNA)
RNA: B5 RNA with A25C, A27U, G28C, U29A, U31A
DNA 1: CAATCTGAATTCCGGTCTCCC
DNA 2: TGGTGGCTACGACGGGATT
B14: GAUUACA (DNA:RNA)
RNA: B1 RNA with U26A, C27U, A28U, G31A
DNA 1: CAATCTGAATTCCGGTCTCCC
DNA 2: TGGTGGCTACGACGGGATT
B15: UCAAACU (DNA:RNA)
RNA: B1 RNA with G25U, U26C, C27A, G31U
DNA 1: CAATCTGAATTCCGGTCTCCC
DNA 2: TGGTGGCTACGACGGGATT
B16: AAAAACU (DNA:RNA)
RNA: B5 RNA with G26A, G28A, U29A, U30C
DNA 1: CAATCTGAATTCCGGTCTCCC
DNA 2: TGGTGGCTACGACGGGATT
B17: CGUUGGA (DNA:RNA)
RNA: B5 RNA with A25C, A27U, G28U, U29G, U30G, U31A
DNA 1: CAATCTGAATTCCGGTCTCCC
DNA 2: TGGTGGCTACGACGGGATT
B18: AGGUCAG (DNA:RNA)
RNA: B5 RNA with A27G, G28U, U29C, U30A, U31G
DNA 1: CAATCTGAATTCCGGTCTCCC
DNA 2: TGGTGGCTACGACGGGATT
B19: AACUCUA (DNA:RNA)
RNA: B5 RNA with G26A, A27C, G28U, U29C, U31A
DNA 1: CAATCTGAATTCCGGTCTCCC
DNA 2: TGGTGGCTACGACGGGATT
B20: CUUGCGA (DNA:RNA)
RNA: B5 RNA with A25C, G26U, A27U, U29C, U30G, U31A
DNA 1: CAATCTGAATTCCGGTCTCCC
DNA 2: TGGTGGCTACGACGGGATT

The binders below were run against T1, RBFOX1 RRM RbFoxmut (Fox-RRM*) (assay: EMSA; HiTS-Eq, 1 nM pool, 10 min; buffer printed only for the single-RNA assays: 10 mM Tris pH 7.5, 150 mM NaCl, 3.4 mM EDTA, 0.001% NP-40, 30 C). Settings: tags: His6 N-terminal (pET28a); label: 5' 32P.
Summary of the method: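 Purified wild-type or mutant RbFox RRM at increasing concentrations was equilibrated with 1 nM of 5′-radiolabelled RNA carrying 7 randomized nucleotides for 10 min in 50 µL. Unbound RNA was separated by 8% native PAGE and sequenced. Relative association constants came from read-count changes of each RNA species compared with the control reaction, normalised to the cognate motif.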

Binder | binding signal
B1 | 0.0916 KA relative to UGCAUGU
B2 | 0.15 KA relative to UGCAUGU
B3 | 0.136 KA relative to UGCAUGU
B4 | 0.0735 KA relative to UGCAUGU
B5 | 0.11 KA relative to UGCAUGU
B6 | 0.239 KA relative to UGCAUGU
B7 | 0.0627 KA relative to UGCAUGU
B8 | 0.12 KA relative to UGCAUGU
B9 | 0.0887 KA relative to UGCAUGU
B10 | 0.0784 KA relative to UGCAUGU
B11 | 0.0699 KA relative to UGCAUGU
B12 | 0.113 KA relative to UGCAUGU
B13 | 0.0938 KA relative to UGCAUGU
B14 | 0.0939 KA relative to UGCAUGU
B15 | 0.0725 KA relative to UGCAUGU
B16 | 0.0883 KA relative to UGCAUGU
B17 | 0.0875 KA relative to UGCAUGU
B18 | 0.117 KA relative to UGCAUGU
B19 | 0.0916 KA relative to UGCAUGU
B20 | 0.0924 KA relative to UGCAUGU
